# Changes are numbered by the printed parent chain. In names and notes the source's numbering stands. Where two headings read alike, the source gives them in different places.
# T1: IL-1R-I on cells (TF-1 cells, NHDF cells, human whole blood) (human, UniProt P14778 18-569)
# T1 sequence (looked up): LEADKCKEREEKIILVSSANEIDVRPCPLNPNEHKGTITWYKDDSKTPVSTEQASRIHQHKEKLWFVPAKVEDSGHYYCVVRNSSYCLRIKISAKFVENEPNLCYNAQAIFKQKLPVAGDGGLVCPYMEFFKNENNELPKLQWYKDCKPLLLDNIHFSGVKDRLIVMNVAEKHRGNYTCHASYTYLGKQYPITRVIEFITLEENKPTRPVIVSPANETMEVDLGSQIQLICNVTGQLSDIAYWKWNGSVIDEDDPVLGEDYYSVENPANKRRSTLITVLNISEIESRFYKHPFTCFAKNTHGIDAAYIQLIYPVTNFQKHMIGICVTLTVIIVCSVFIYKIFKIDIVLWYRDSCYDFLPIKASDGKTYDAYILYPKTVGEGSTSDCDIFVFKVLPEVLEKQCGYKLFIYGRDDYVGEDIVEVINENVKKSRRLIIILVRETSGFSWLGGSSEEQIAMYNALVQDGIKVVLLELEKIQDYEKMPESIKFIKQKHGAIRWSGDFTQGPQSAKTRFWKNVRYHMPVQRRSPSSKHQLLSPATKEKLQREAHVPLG
# T2: Human IL-1R-I (RnD Systems cat. no. 269-1R/CF) (human, UniProt P14778 18-332, limits assumed)
# T2 construct: Bought recombinant protein; also called hIL-1R-I; hIL-1RI
# T2 sequence (looked up): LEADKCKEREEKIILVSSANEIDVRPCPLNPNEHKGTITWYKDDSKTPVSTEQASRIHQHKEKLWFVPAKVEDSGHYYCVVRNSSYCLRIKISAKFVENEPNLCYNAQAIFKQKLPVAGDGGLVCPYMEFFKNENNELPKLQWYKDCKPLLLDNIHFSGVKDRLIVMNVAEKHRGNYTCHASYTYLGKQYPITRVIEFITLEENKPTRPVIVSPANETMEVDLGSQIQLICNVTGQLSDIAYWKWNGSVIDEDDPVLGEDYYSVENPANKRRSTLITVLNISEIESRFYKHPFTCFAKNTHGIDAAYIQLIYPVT
# T3: cynomolgus IL-1R-I-His6 (cynomolgus, UniProt P14778 19-332 (human entry), limits assumed)
# T3 construct: also called cIL-1R-I-His6
# T3 chain: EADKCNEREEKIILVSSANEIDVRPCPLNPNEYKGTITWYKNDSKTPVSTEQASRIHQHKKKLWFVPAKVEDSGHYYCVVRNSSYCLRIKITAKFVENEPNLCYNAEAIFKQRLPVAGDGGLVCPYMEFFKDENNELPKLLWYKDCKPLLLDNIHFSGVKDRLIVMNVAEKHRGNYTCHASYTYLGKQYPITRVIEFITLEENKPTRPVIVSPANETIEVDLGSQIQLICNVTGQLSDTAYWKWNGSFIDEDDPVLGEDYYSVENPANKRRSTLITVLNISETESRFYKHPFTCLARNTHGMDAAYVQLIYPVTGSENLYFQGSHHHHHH
# T4: human IL-1R-I on Normal Human Dermal Fibroblasts (NHDF) cells (human, UniProt P14778 18-569)
# T4 sequence (looked up): T1 sequence (looked up)
# T5: Human IL-1R-I-Fc (Creative BioMart cat. no. IL1RI-771H) (human, UniProt P14778 18-332, limits assumed)
# T5 construct: Bought protein; also called hIL-1R-I-Fc; hIL-1RI-Fc; not shown: Fc part of the bought fusion
# T5 sequence (looked up): T2 sequence (looked up)
# B1: His6-tagged Z12967 (designed binder)
# chain: MGSSHHHHHHLQVDAKYAKEAHRAQMEIFALPNLTRRQYTAFIRKLLDDPSQSSELLSEAKKLNDSQAPKVD
# notes: also called His6-Z12967
# B2: His6-tagged Z12922 (designed binder)
# chain: B1 chain with A21D, H22E, R23Q, M26L, A30N
# notes: also called His6-Z12922
# B3: His6-tagged Z12974 (designed binder)
# chain: B1 chain with H22D, R23H, M26Q, R44I
# notes: also called His6-Z12974
# B4: His6-tagged Z12975 (designed binder)
# chain: B1 chain with R23N, M26Q, F29Y, A30R, R44I
# notes: also called His6-Z12975
# B5: His6-tagged Z16065 (designed binder)
# chain: B1 chain with A21V, H22E, R23E
# notes: also called His6-Z16065
# B6: His6-tagged Z16163 (designed binder)
# chain: B1 chain with A21V, H22E, A30E
# notes: also called His6-Z16163
# B7: His6-tagged Z18557 (designed binder)
# chain: B1 chain with A21I, H22E, R23A, A24V, A30Y, R37K, L47F
# notes: also called His6-Z18557
# B8: PSI0654 (Z18754[N297A]-LS-IgG1 Fc) (Fc fusion)
# chain: AEAKYAKEVEEIQMEIFRLPNLTRRQYTAFIRKLLDDPSQSSELLSEAKKLSESQAPKASGGGGSGGGGSDKTHTCPPCPAPELLGGPSVFLFPPKPKDTLMISRTPEVTCVVVDVSHEDPEVKFNWYVDGVEVHNAKTKPREEQYASTYRVVSVLTVLHQDWLNGKEYKCKVSNKALPAPIEKTISKAKGQPREPQVYTLPPSRDELTKNQVSLTCLVKGFYPSDIAVEWESNGQPENNYKTTPPVLDSDGSFFLYSKLTVDKSRWQQGNVFSCSVLHEALHSHYTQKSLSLSPGK
# B9: PSI0655 (Z18754[N297A]-YTE-IgG1 Fc) (Fc fusion)
# chain: B8 chain with M102Y, S104T, T106E, L278M, S284N
# B10: PSI0589 (PSI0536[amino acids 1-86], dimeric) (designed binder)
# chain: AEAKYAKEVEEIQMEIFRLPNLTRRQYTAFIRKLLDDPSQSSELLSEAKKLSESQAPKASGGGGSGGGGSDKTHTCPPCPAPELLG
# B11: Z12967 as Z-ABD fusion (periplasmic extract) (designed binder)
# chain: AQHDEALEVDAKYAKEAHRAQMEIFALPNLTRRQYTAFIRKLLDDPSQSSELLSEAKKLNDSQAPKVDYVLAEAKVLANRELDKYGVSDYYKNLINNAKTVEGVKALIDEILAALPYVPG
# B12: Z16065 as Z-ABD fusion (periplasmic extract) (designed binder)
# chain: B11 chain with A17V, H18E, R19E
# B13: Z16218 as Z-ABD fusion (periplasmic extract) (designed binder)
# chain: B11 chain with A17V, H18T, R19D, R33K
# B14: Z18814 as Z-ABD fusion (periplasmic extract) (designed binder)
# chain: B11 chain with A17V, H18E, R19E, A20I
# B15: His6-tagged Z18800 (designed binder)
# chain: B1 chain with A21I, H22E, R23E, A24I, A30R
# notes: also called His6-Z18800
# B16: His6-tagged Z18754 (designed binder)
# chain: B1 chain with A21V, H22E, R23E, A24I, A30R
# notes: also called His6-Z18754
# B17: His6-tagged Z18760 (designed binder)
# chain: B1 chain with A21T, H22E, R23A, A24V
# notes: also called His6-Z18760
# B18: PSI0654: Z18754[N297A]-LS-IgG1 Fc (Fc fusion)
# chain: B8 chain
# notes: Produced in CHO cells
# B19: PSI0655: Z18754[N297A]-YTE-IgG1 Fc (Fc fusion)
# chain: B8 chain with M102Y, S104T, T106E, L278M, S284N
# notes: Produced in CHO cells
# How the values were obtained:
# [1] = molecular target: T1, IL-1R-I on cells (TF-1 cells, NHDF …); experiment: cell-based or functional assay
# [2] = molecular target: T2, Human IL-1R-I (RnD Systems cat. no. …); experiment: Biacore 2000 SPR; hIL-1R-I immobilised on CM5, His6-Z at 40 and 10 nM, 1:1 model
# Description: (§1) One flow cell surface on the chip was activated and deactivated for use as blank during analyte injections.
# [3] = molecular target: T1, IL-1R-I on cells (TF-1 cells, NHDF …); experiment: cell-based or functional assay; remark: listed apart in the source
# [4] = molecular target: T2, Human IL-1R-I (RnD Systems cat. no. …); experiment: Biacore 2000 SPR (Example 9); hIL-1R-I immobilised, His6-Z at 48, 12, 3 and 0.75 nM, 1:1 model
# Description: as §1
# [5] = molecular target: T2, Human IL-1R-I (RnD Systems cat. no. …); experiment: Biacore 2000 SPR (Example 5); hIL-1R-I immobilised, His6-Z at 100, 10 and 1 nM, 1:1 model
# Description: as §1
# cynomolgus IL-1R-I-His6 [6] = molecular target: T3, cynomolgus IL-1R-I-His6; experiment: Biacore 2000 SPR; cIL-1R-I-His6 immobilised on CM5, His6-Z at 40 and 10 nM, 1:1 model
# Description: as §1
# cynomolgus IL-1R-I-His6 [7] = molecular target: T3, cynomolgus IL-1R-I-His6; experiment: Biacore 2000 SPR; cIL-1R-I-His6 immobilised, His6-Z at 100, 10 and 1 nM, 1:1 model
# Description: as §1
# [8] = molecular target: T4, human IL-1R-I on Normal Human Dermal …; experiment: cell-based or functional assay
# [9] = molecular target: T4, human IL-1R-I on Normal Human Dermal …; experiment: cell-based or functional assay; remark: listed apart in the source
# [10] = molecular target: T2, Human IL-1R-I (RnD Systems cat. no. …); experiment: Biacore T200 kinetic screening; Z-ABD captured on anti-ABD antibody, 100 nM hIL-1R-I injected
# [11] = molecular target: T5, Human IL-1R-I-Fc (Creative BioMart cat. …); experiment: ELISA titration; Z-ABD periplasmic extract, hIL-1R-I-Fc 100-0.01 nM
# [12] = molecular target: T5, Human IL-1R-I-Fc (Creative BioMart cat. …); experiment: ELISA titration (Example 8); Z-ABD periplasmic extract, hIL-1R-I-Fc 20-0.002 nM
# [13] = molecular target: T5, Human IL-1R-I-Fc (Creative BioMart cat. …); experiment: ELISA titration (Example 4); Z-ABD periplasmic extract, hIL-1R-I-Fc 100-0.01 nM
# [14] = molecular target: T2, Human IL-1R-I (RnD Systems cat. no. …); experiment: Biacore 2000 kinetic screening (Example 8); Z-ABD captured on anti-ABD antibody, 100 nM hIL-1R-I injected
# cynomolgus IL-1R-I-His6 [15] = molecular target: T3, cynomolgus IL-1R-I-His6; experiment: Biacore 2000 SPR (Example 9); cIL-1R-I-His6 immobilised, His6-Z at 48, 12, 3 and 0.75 nM, 1:1 model
# Description: as §1
# [16] = molecular target: T6, biotinylated FCγR3A (Sino Biological) (UniProt P08637 17-208, biotinylated); experiment: Biolayer interferometry, biotinylated FCγR3A on streptavidin sensor
# T6 construct: Immobilised on a streptavidin biosensor
# Description: In addition Human IgG (GammaNorm, Octapharma) was used as control in the measurements.
# T6 sequence (P08637 17-208): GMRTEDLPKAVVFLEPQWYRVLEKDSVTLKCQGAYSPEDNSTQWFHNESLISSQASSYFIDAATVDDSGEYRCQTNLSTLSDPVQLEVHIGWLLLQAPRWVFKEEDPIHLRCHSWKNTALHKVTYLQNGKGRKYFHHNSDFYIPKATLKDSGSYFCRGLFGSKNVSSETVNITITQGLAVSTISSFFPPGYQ
binder,measurement,setting,value
B1,"IC50, TF-1 cell assay (Example 5)",[1],5.2 nM
same,"IC50, TF-1 cell assay (Example 9)",[1],7.4 nM
same,Kd,[2],1.2 nM
same,"IC50, inhibition of IL-1B induced proliferation of TF-1 cells",[3],1.1 nM
same,Kd,[4],0.82 nM
same,Kd,[5],0.51 nM
same,Kd,cynomolgus IL-1R-I-His6 [6],35 nM
B2,Kd,[2],9.8 nM
same,"IC50, inhibition of IL-1B induced proliferation of TF-1 cells",[3],66 nM
B3,Kd,[2],15 nM
same,"IC50, inhibition of IL-1B induced proliferation of TF-1 cells",[3],60 nM
B4,Kd,[2],89 nM
same,"IC50, inhibition of IL-1B induced proliferation of TF-1 cells",[3],35 nM
B5,"IC50, TF-1 cell assay (Example 9)",[1],3.3 nM
same,Kd,[4],0.51 nM
B6,"IC50, TF-1 cell assay (Example 9)",[1],3.3 nM
same,Kd,[4],0.76 nM
B7,"IC50, TF-1 cell assay (Example 9)",[1],0.6 nM
same,Kd,cynomolgus IL-1R-I-His6 [7],7.6 nM
same,Kd,[4],0.14 nM
B8,"IC50 (pM), inhibition of IL-1B induced IL-6 release in NHDF cells",[8],2.9 pM
B9,"IC50 (pM), inhibition of IL-1B induced IL-6 release in NHDF cells",[8],5.9 pM
B10,"IC50 (pM), inhibition of IL-1B induced IL-6 release in NHDF cells",[9],1.8 pM
B11,Kd,[10],25 nM
same,EC50,[11],0.17 nM
same,EC50,[12],0.26 nM
same,EC50,[13],0.24 nM
same,Kd,[14],27 nM
B12,EC50,[12],0.21 nM
same,Kd,[14],7.5 nM
B13,EC50,[12],0.22 nM
same,Kd,[14],13 nM
B14,fold higher affinity than Z16065,[14],3 fold
B15,Kd,cynomolgus IL-1R-I-His6 [15],3.3 nM
B16,Kd,cynomolgus IL-1R-I-His6 [15],2 nM
B17,Kd,cynomolgus IL-1R-I-His6 [15],6.7 nM
B18,binding result,[16],no binding (tested: 100 and 1000 nM)
B19,binding result,[16],no binding (tested: 100 and 1000 nM)
